Measured values reported in the supplement of paper PMC4967469.
pIC50: −log10 of the molar value. A lower IC50 marks a more sensitive line; a limit (>, <) means that the fit lies beyond the doses tested. The AUC spans the tested range (256-fold, ending at the top dose) of the same fit; the more sensitive the line, the further below 1. For some assays here: Where the top dose is marked as inferred, it comes from the curve model; the source does not state it. For some assays here: Where an entry number is given, a second screen of the drug exists; the two often differ.

What was measured:
Experiment in all cases: Viability of human cancer cell lines after 72 h of drug (GDSC screen)
[1] = compound: C#Cc1cccc(Nc2ncnc3cc(OC)c(OCCCCCCC(=O)NO)cc23)c1 [CUDC-101]; conditions: top dose 5.12 µM; top dose inferred
Method: (§1)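 Human cancer cell lines in 384-well plates, medium with 10% serum, drug for 72 h over a 256-fold dose range (nine 2-fold or five 4-fold steps up to the top dose). Adherent lines were fixed and stained with the nucleic acid dye Syto60, suspension lines read with resazurin; signal relative to control wells, capped at 0 and 100%. One two-parameter sigmoid per drug and line, fitted in a mixed model over all curves with the slope shared within a line.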

[2] = compound: CC(C)(C)c1cc(NC(=O)Nc2ccc(-c3cn4c(n3)sc3cc(OCCN5CCOCC5)ccc34)cc2)no1 [AC220]; conditions: top dose 1.024 µM; top dose inferred
Method: as §1

[3] = compound: COc1cc(F)c(F)c(Nc2ccc(I)cc2F)c1NS(=O)(=O)C1(C[C@H](O)CO)CC1 [RDEA119]; conditions: top dose 5 µM, top dose inferred
Method: as §1

[4] = compound: Fc1cc(-c2ccnc(Nc3ccc(-n4cnc(N5CCOCC5)n4)cc3)n2)cc(N2CCOCC2)c1 [JNK-9L]; conditions: top dose 5.12 µM; top dose inferred
Method: as §1

[5] = compound: NCC(=O)Nc1ccc(-n2nc(C(F)(F)F)cc2-c2ccc3c(ccc4ccccc43)c2)cc1 [OSU-03012]; conditions: top dose 16 µM; top dose inferred
Method: as §1

[6] = compound: O=c1[nH]cc(F)c(=O)[nH]1 [5-Fluorouracil]; conditions: top dose 32 µM; top dose inferred
Method: as §1

[7] = compound: OC[C@H](Cc1ccccc1)Nc1nc(Oc2ccc3c(c2)CCC3)nc2c1ncn2Cc1ccc(-c2ccccc2)cc1 [QS11]; conditions: top dose 10.24 µM
Method: as §1

Cell Line: NCI-H292 (lung adenocarcinoma, adherent)
- AUC [1]: 0.293
- pIC50 [1]: 7.14
- AUC [2]: 0.978
- pIC50 [2]: < 5.99
- AUC ([3]; screen: GDSC drug entry 1526): 0.408
- pIC50 ([3]; screen: GDSC drug entry 1526): 6.78
- AUC [4]: 0.591
- pIC50 [4]: 6.22
- AUC [5]: 0.689
- pIC50 [5]: 5.42
- AUC [6]: 0.549
- pIC50 [6]: 5.55
- AUC [7]: 0.889
- pIC50 [7]: < 4.99

Cell Line: JHH-7 (liver, adherent)
- AUC [1]: 0.673
- pIC50 [1]: 6.03
- AUC [2]: 0.989
- pIC50 [2]: < 5.99
- AUC ([3]; screen: GDSC drug entry 1014): 0.791
- pIC50 ([3]; screen: GDSC drug entry 1014): 5.68
- AUC ([3]; screen: GDSC drug entry 1526): 0.771
- pIC50 ([3]; screen: GDSC drug entry 1526): 5.74
- AUC [4]: 0.621
- pIC50 [4]: 6.17
- AUC [5]: 0.53
- pIC50 [5]: 5.92
- AUC [6]: 0.929
- pIC50 [6]: < 4.49
- AUC [7]: 0.784
- pIC50 [7]: 5.39

Cell Line: NB10 (neuroblastoma, adherent)
- AUC [1]: 0.754
- pIC50 [1]: 5.77
- AUC [2]: 0.987
- pIC50 [2]: < 5.99
- AUC ([3]; screen: GDSC drug entry 1014): 0.954
- pIC50 ([3]; screen: GDSC drug entry 1014): < 5.30
- AUC ([3]; screen: GDSC drug entry 1526): 0.919
- pIC50 ([3]; screen: GDSC drug entry 1526): < 5.30
- AUC [4]: 0.67
- pIC50 [4]: 6.03
- AUC [5]: 0.803
- pIC50 [5]: 5.11
- AUC [6]: 0.669
- pIC50 [6]: 5.23
- AUC [7]: 0.827
- pIC50 [7]: 5.22

Cell Line: NCI-H596 (lung adenocarcinoma, adherent)
- AUC [1]: 0.564
- pIC50 [1]: 6.30
- AUC [2]: 0.962
- pIC50 [2]: < 5.99
- AUC ([3]; screen: GDSC drug entry 1014): 0.81
- pIC50 ([3]; screen: GDSC drug entry 1014): 5.44
- AUC ([3]; screen: GDSC drug entry 1526): 0.887
- pIC50 ([3]; screen: GDSC drug entry 1526): < 5.30
- AUC [4]: 0.574
- pIC50 [4]: 6.27
- AUC [5]: 0.804
- pIC50 [5]: 4.96
- AUC [6]: 0.793
- pIC50 [6]: 4.71
- AUC [7]: 0.966
- pIC50 [7]: < 4.99

Cell Line: 23132-87 (stomach, adherent)
- AUC [1]: 0.453
- pIC50 [1]: 6.63
- AUC [2]: 0.982
- pIC50 [2]: < 5.99
- AUC ([3]; screen: GDSC drug entry 1014): 0.805
- pIC50 ([3]; screen: GDSC drug entry 1014): 5.58
- AUC ([3]; screen: GDSC drug entry 1526): 0.859
- pIC50 ([3]; screen: GDSC drug entry 1526): 5.36
- AUC [4]: 0.589
- pIC50 [4]: 6.25
- AUC [5]: 0.797
- pIC50 [5]: 5.10
- AUC [6]: 0.606
- pIC50 [6]: 5.40
- AUC [7]: 0.776
- pIC50 [7]: 5.37

Cell Line: MZ2-MEL (melanoma, adherent)
- AUC [1]: 0.63
- pIC50 [1]: 6.11
- AUC [2]: 0.902
- pIC50 [2]: < 5.99
- AUC ([3]; screen: GDSC drug entry 1014): 0.562
- pIC50 ([3]; screen: GDSC drug entry 1014): 6.32
- AUC ([3]; screen: GDSC drug entry 1526): 0.753
- pIC50 ([3]; screen: GDSC drug entry 1526): 5.71
- AUC [4]: 0.564
- pIC50 [4]: 6.31
- AUC [5]: 0.748
- pIC50 [5]: 5.23
- AUC [6]: 0.961
- pIC50 [6]: < 4.49
- AUC [7]: 0.758
- pIC50 [7]: 5.39

Cell Line: Mo-T (hairy cell leukaemia, suspension)
- AUC [1]: 0.596
- pIC50 [1]: 6.23
- AUC [2]: 0.784
- pIC50 [2]: 6.35
- AUC ([3]; screen: GDSC drug entry 1014): 0.959
- pIC50 ([3]; screen: GDSC drug entry 1014): < 5.30
- AUC ([3]; screen: GDSC drug entry 1526): 0.953
- pIC50 ([3]; screen: GDSC drug entry 1526): < 5.30
- AUC [4]: 0.758
- pIC50 [4]: 5.74
- AUC [5]: 0.846
- pIC50 [5]: 4.92
- AUC [6]: 0.824
- pIC50 [6]: 4.71
- AUC [7]: 0.981
- pIC50 [7]: < 4.99
